Reference: the supplement of paper PMC11417369
± gives the standard deviation of the averaged measurements. The list shows a part of the results.

Each sequence was assayed on PfAP2-I AP2 domain 3 (GST-tagged) (assay: gcPBM binding intensity (ln(normalized median fluorescence intensity)); higher = stronger DNA binding).
Method in brief: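 Each value is the highest Masliner-normalised natural-log median intensity across replicate spots of either orientation of a probe. The probes were primer-extended double-stranded 36-bp intergenic genomic sequences on an Agilent 4 × 180k array, alongside negative controls, exposed for 1 h to GST-tagged P. falciparum DNA-binding domains expressed in E. coli. Bound protein was picked up with Alexa488 anti-GST antibody and scanned at 488 nm.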

| Sequence | gcPBM binding intensity (ln) |
| --- | --- |
| AGATAAAATATATACACACACATAAATACGTACAAA [CACACA_site1086] | 8.39 ± 0.028 |
| AAAAGAATGAAACATAATAAATTACATTAAAATAAT [CACACA_negctrl_site897] | 7.72 ± 0.51 |
| GGCATACACAGACACACACACACACCCACATATATA [CACACA_site591] | 8.29 ± 0.4 |
| TAATTATCACATTGCACACACATTTCCTTTTACATT [CACACA_site3443] | 8.79 ± 0.45 |
| AATAAATAAATAAGTACACACATATATATATATATA [CACACA_site284] | 9.27 ± 0.41 |
| ATTTTTTTATTTTGTGCACACACATAAAAATATATA [CACACA_site762] | 11.1 ± 0.27 |
| GATTTTCATATTTTTTGTACTTACATTTTTCTATAC [XGTACX_site6002] | 8.18 ± 0.53 |
| ATAAAATCTTAATCAACAAACAAACAAAAAAAAAAT [CACACA_negctrl_site1161] | 7.72 ± 0.61 |
| TATGTGATATATTTATCACACATTATATATATATAT [CACACA_site5103] | 9.05 ± 0.69 |
| TACATTTTTATTTTTACACACATATTTATTTATATA [CACACA_site6609] | 7.91 ± 0.45 |
| TATGATGATGAATAACGTACAAAAAAATTAATCACC [XGTACX_site6794] | 8.16 ± 0.49 |
| ATTCATTTTAATATGGGTACATAAAAATAAAAAGAA [XGTACX_site2801] | 8.09 ± 0.39 |
| AATATTTAATTCAACACACATACATATTTATTAAAA [CACACA_site2342] | 7.95 ± 0.24 |
| TAATATGAAAAGTGTACACACGCACAGACAAAAAAA [CACACA_site5594] | 8.43 ± 0.56 |
| GCATAAATCAGACACACACACATATATAAATATGTA [CACACA_site7187] | 7.78 ± 0.33 |
| TGTTTATTTTTTTTATGTACTTATTTTTTATTGCAT [XGTACX_site719] | 8.21 ± 0.18 |
| ATAAATATATGGTTTCATTATATTAAATTCAATTTA [CACACA_negctrl_site213] | 7.28 ± 0.54 |
| AGTATAGTTATAAATTGTACATATTATTTATTTTAT [XGTACX_site949] | 7.64 ± 0.47 |
| TAAGTCGCCAAAAGGTGTACACATAATGCATTATCA [XGTACX_site8852] | 8.83 ± 0.48 |
| ATGGGGAATAATGAATGTACACAAATAAAAAGTTGG [XGTACX_site4015] | 8.24 ± 0.63 |
| TAATATCATTTAGACACACACTCTTACAATCTGTAA [CACACA_site2590] | 7.51 ± 0.64 |
| AATCATTTATGGAAAGCATGCTAAATTAGAGTATAC [TGCATGCA_site172] | 7.82 ± 0.88 |

| Sequence | gcPBM binding intensity (ln) |
| --- | --- |
| ATCTAAACCTTTTGAGCACACATATATATATATATA [CACACA_site8526] | 9.51 ± 0.49 |
| TAAAAATAAAAATAACGTACATACATACTTATATAT [XGTACX_site3745] | 7.5 ± 0.16 |
| TAATTTTTTTAAAACACACAAATATGTAAATATGTA [CACACA_site7769] | 7.43 ± 0.45 |
| ATTTTTGTGACTAAGACATGCATAAGAGTAAAGAAA [TGCATGCA_site619] | 8.46 ± 0.75 |
| ACATATATTATATAACGTACATAACACTATTTCCTT [XGTACX_site6938] | 7.95 ± 0.54 |
| TTTTTTTTTTGTAATTGTACTTTTTTAATACTTCTA [XGTACX_site4195] | 7.74 ± 0.82 |
| TATATATATATATTCACACATAAATATATGCACCCA [CACACA_site4263] | 11.1 ± 0.68 |
| TATACATATATATACACACACATATATATATATATA [CACACA_site4] | 9.26 ± 0.52 |
| TCATACCTACATAAAAAAAGGGAAACAAAATGTCAT [XGTACX_negctrl_site34] | 7.57 ± 0.79 |
| AATAAATATAAATACACACCCATATATATATATATA [CACACA_site5436] | 9.46 ± 0.56 |
| ACCAATAAATATTTGGTGCATACATATATATATATA | 10.31 ± 0.064 |
| TTAAAAAAAAAAAAAAGTACACACTTATAAAATATT [XGTACX_site1630] | 8.055 ± 0.021 |
| CTCCACAAACAAATCGCACACCCAACCCAACATATA [CACACA_site2650] | 8.41 ± 0.18 |
| TATTATAATGACTATAGTACATAATATTATTTATAT [XGTACX_site1977] | 7.67 ± 0.34 |
| ATAGAACTGAATAAATCTATAAATAAATATATATAT [GTGCAC_negctrl_site604] | 8.835 ± 0.007 |
| TTTTTTAAAACTTCAAAAAGAGCACTTGAATTTTTT [GTGCAC_negctrl_site455] | 7.9 ± 0.37 |
| ACATATACATTTATATGTACTCATTTATCTTATGTA [XGTACX_site6594] | 7.71 ± 0.42 |
| AAATATTACATACACGCACACATTAATATATTTAAA [CACACA_site2603] | 8.32 ± 0.38 |
| AACTAAATTTATAATTGTACATTAAAATATGTATTA [XGTACX_site479] | 7.59 ± 0.4 |
| ACCTACACAAGCATTAAACACACAAAAGGGATACTT [CACACA_site8273] | 7.97 ± 0.69 |
| ACCTAATTTTTATATTGTACATAATATAATATATAT [XGTACX_site1715] | 8 ± 0.42 |
| ACAAGAACAGAACGTACACACACATATATATATATA [CACACA_site9143] | 9.34 ± 0.35 |
